# Assay results: PubChem BioAssay AID889 (National Center for Advancing Translational Sciences (NCATS), 2007)
# About 15 (0.02%) of roughly 75,000 compounds were called active. The shares of active, inactive and inconclusive entries below differ from those in the screen. The call rests on the fitted dose curve; in most records, active means well fitted inhibition curve with a large enough effect in the main read-out, with a control signal flat (not every such curve was filed as active); inconclusive means small, poorly fitted or top-dose-only effect, or a change in a side signal; inactive means flat fitted curve, though single readings scatter. A potency beside an inconclusive call is a rough fit, not a confirmed value. “Side channel” marks fits to a control or component signal instead of the main read-out.
# Target: Caspase-7 (Homo sapiens) (UniProt P55210)
# Chain of UniProt P55210 (P55210 whole entry, looked up): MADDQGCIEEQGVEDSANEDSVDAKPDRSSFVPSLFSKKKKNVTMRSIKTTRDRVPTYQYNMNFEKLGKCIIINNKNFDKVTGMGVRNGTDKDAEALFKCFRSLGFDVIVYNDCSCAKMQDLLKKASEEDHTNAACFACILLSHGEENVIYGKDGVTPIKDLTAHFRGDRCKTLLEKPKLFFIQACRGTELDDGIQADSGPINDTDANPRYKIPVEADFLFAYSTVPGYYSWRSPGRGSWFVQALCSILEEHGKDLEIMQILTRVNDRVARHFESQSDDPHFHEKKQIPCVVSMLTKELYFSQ
# Assay: qHTS Assay for Allosteric/Competitive Inhibitors of Caspase-7; on activity change, negative = inhibition: % of control where 0% means no effect
# Details: recombinant caspase-7, Ac-DEVD-AFC fluorescence rate; activity change, negative = inhibition: at 57.5 µM (top of the series) unless noted
# Potency means the concentration at half of the fitted maximal effect; tags describe the fitted curve by direction and shape or compound fluorescence and quenching.
Structure (SMILES),Potency,"activity change, negative = inhibition"
CN1/C(=C\C(=O)c2ccco2)C(C)(C)c2ccccc21,"inconclusive: 25.1 µM [inhibitor, single point]",
COc1ccc(N2CCN(c3ncnc4nc[nH]c34)CC2)cc1,"inconclusive: 20 µM [fluorescent, side channel, partial curve]",
COC(=O)c1cc(-c2ccccc2)sc1NC(=O)c1cc(C)on1,"inconclusive: 3.16 µM [inhibitor, partial curve]",
O=c1c2cc(O)c(O)cc2oc2cc(O)c(C3OC(CO)C(O)C(O)C3O)c(O)c12 (stereo not drawn),"inconclusive: 20 µM [inhibitor, partial curve]",
CC=C(Cl)Cl,,inactive: 1.21%
COc1ccc(CNc2ccnc(-c3ccc(N(C)C)cc3)n2)c(OC)c1,"inconclusive: 31.6 µM [inhibitor, single point]",
CC(=O)Nc1ccc(N/C=C/C(=O)c2ccc(C)o2)cc1,"inconclusive: 25.1 µM [inhibitor, partial curve]",
Cc1occc1-c1nnc(SCc2cc(=O)n3cc(Br)ccc3n2)n1C,,inactive: -4.37%
O=C(OCC1OC(OC(=O)c2cc(O)c(O)c(OC(=O)c3cc(O)c(O)c(O)c3)c2)[C@@H](OC(=O)c2cc(O)c(O)c(OC(=O)c3cc(O)c(O)c(O)c3)c2)C(OC(=O)c2cc(O)c(O)c(OC(=O)c3cc(O)c(O)c(O)c3)c2)C1OC(=O)c1cc(O)c(O)c(OC(=O)c2cc(O)c(O)c(O)c2)c1)c1cc(O)c(O)c(OC(=O)c2cc(O)c(O)c(O)c2)c1 (stereo partly drawn),"inconclusive: 31.6 µM [inhibitor, single point]",
CCOc1ccc(C2C(C#N)=C(N)N3C(=C2C#N)Sc2ccccc23)cc1 (stereo not drawn),"inconclusive: 5.01 µM [fluorescent, side channel, partial curve]",
O=C(/C=C/c1ccc(O)c(O)c1)OCCc1ccccc1,,inactive: -1.4%
COc1cccc(Cn2c(=O)c(-c3cccs3)nc3cnc(Nc4ccccc4)nc32)c1,"inconclusive: 1.58 µM [fluorescent, side channel, partial curve]",
NNc1nncc2ccccc12,inactive,
COc1ccc(-c2nc3cncnc3n(-c3ccccc3)c2=O)cc1,"inconclusive: 15.8 µM [inhibitor, partial curve]",
COc1ccc([C@H]2Sc3ccccc3N(CCN(C)C)C(=O)[C@H]2OC(C)=O)cc1,inactive,
CCOC(=O)N1CCN(S(=O)(=O)c2cc(Br)cnc2N)CC1,,inactive: 0.508%
C=CCn1c(=N)c(C(=O)OC)cc2c(=O)n3cccc(C)c3nc21,"inconclusive: 0.126 µM [fluorescent, full curve]",
O=C1CSC(c2cccc(F)c2)N1c1ccccc1F (stereo not drawn),,inactive: 0.368%
COc1ccc2[nH]c(=O)c(CN(Cc3nnnn3Cc3ccccc3)CC3CCCO3)cc2c1 (stereo not drawn),"inconclusive: 31.6 µM [fluorescent, side channel, single point]",
O=C(c1ccc(-c2cccc(C(F)(F)F)c2)o1)N1CCOCC1,,inactive: 0.853%
O=C(CCCCCN1C(=O)c2ccccc2C1=O)NCc1ccco1,,inactive: 1.25%
O=C(c1ccco1)N1CCN(C(=O)c2cccn3c(=O)c4c5c(sc4nc23)CCCC5)CC1,"inconclusive: 25.1 µM [inhibitor, single point]",
CC(C)N1CC2=C(OC(N)=C(C#N)C2c2cccnc2)/C(=C/c2cccnc2)C1 (stereo not drawn),"inconclusive: 31.6 µM [inhibitor, single point]",
